This is one part of the list.
Molecular target: no compound (DMSO)
Test: log2 fold change of degron read counts, EGFP-low vs EGFP+ sorted cells; higher = lower degron-EGFP level without compound (poor expression or instability)
Details: compound: DMSO control; 18 h
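Note: jurkat cells carrying a lentiviral library of mutant zinc finger degrons fused to EGFP plus mCherry, mCherry+ cells FACS sorted, degron abundance counted by next-generation sequencing.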

Sequence | log2 fold change of degron read counts
FMCNVCGAIFTQKGNLLRHIKL | 0.237
FDCNQCGRFFTQKGNLLRHIKL | 1.5
LLCPICGFICTQKGNLLRHIKL | 1.58
FSCDICGAVFTQKGNLLRHIKL | 0.74
FSCNVCGATFTQKGNLLRHIKL | -1.03
FGCPICGRNFTQKGNLLRHIKL | 0.26
FMCPQCGAHFTQKGNLLRHIKL | -0.206
FMCNICGAKFTQKGNLLRHIKL | -0.988
FECPVCGATFTQKGNLLRHIKL | -0.491
FECPVCGAYFTQKGNLLRHIKL | -1.12
FDCNQCGRDFTQKGNLLRHIKL | 0.336
FDCEQCGAKFTQKGNLLRHIKL | -1.26
FNCNQCGAIFTQKGNLLRHIKL | -0.217
FRCEVCGAMFTQKGNLLRHIKL | -1.29
LECNQCGFTCTQKGNLLRHIKL | -0.86
FMCEICGAPFTQKGNLLRHIKL | -0.39
FVCNQCGACFTQKGNLLRHIKL | -1.24
FNCNQCGRTFTQKGNLLRHIKL | -0.483
FNCDVCGADFTQKGNLLRHIKL | -1.49
LWCEICGFRCTQKGNLLRHIKL | 1.34
FYCDICGAHFTQKGNLLRHIKL | -0.467
FDCPVCGAIFTQKGNLLRHIKL | 0.277
FTCNQCGRSFTQKGNLLRHIKL | -0.834
FRCPICGAWFTQKGNLLRHIKL | 0.851
FQCEVCGAIFTQKGNLLRHIKL | -1.75

Sequence | log2 fold change of degron read counts
FWCEQCGAGFTQKGNLLRHIKL | -0.428
FECNQCGHVFTQKGNLLRHIKL | -1.2
FQCNQCGAGFTQKGNLLRHIKL | -1.09
FVCEICGRIFTQKGNLLRHIKL | -0.428
FCCPQCGANFTQKGNLLRHIKL | -0.181
FMCPQCGACFTQKGNLLRHIKL | 0.164
FTCSVCGHWFTQKGNLLRHIKL | -0.0063
FQCPQCGACFTQKGNLLRHIKL | -0.564
FHCEICGRIFTQKGNLLRHIKL | -0.445
FHCPICGHGFTQKGNLLRHIKL | 0.00505
LNCPICGFMCTQKGNLLRHIKL | 1.07
FSCPVCGANFTQKGNLLRHIKL | -0.362
FHCEICGHAFTQKGNLLRHIKL | -1.46
LNCPICGFWCTQKGNLLRHIKL | 1.74
FYCNQCGALFTQKGNLLRHIKL | -0.313
FRCDICGAMFTQKGNLLRHIKL | -1.15
LWCNQCGFHCTQKGNLLRHIKL | 2.2
FDCEICGAYFTQKGNLLRHIKL | -0.576
FECPVCGANFTQKGNLLRHIKL | -0.772
FHCDICGAPFTQKGNLLRHIKL | -0.96
FDCEVCGADFTQKGNLLRHIKL | -1.18
FLCEQCGAHFTQKGNLLRHIKL | -1.54
FHCEICGRKFTQKGNLLRHIKL | -2.08
FSCDICGAYFTQKGNLLRHIKL | -1.02
FRCDQCGASFTQKGNLLRHIKL | -2.21

From the supplement of paper PMC12645437, “Orthogonal IMiD-Degron Pairs Induce Selective Protein Degradation in Cells” (ACS Chemical Biology, 2025)
